Consider one molecule from patent US20200181261A1 (Bayer, published 2020).

This test deals with T1, human CEACAM1, extracellular (mature form), R&D Systems 2244-CM (human, UniProt P13688 35-428).
T1 construct: used biotinylated in some assays; also called TPP-1437; hC1
T1 sequence: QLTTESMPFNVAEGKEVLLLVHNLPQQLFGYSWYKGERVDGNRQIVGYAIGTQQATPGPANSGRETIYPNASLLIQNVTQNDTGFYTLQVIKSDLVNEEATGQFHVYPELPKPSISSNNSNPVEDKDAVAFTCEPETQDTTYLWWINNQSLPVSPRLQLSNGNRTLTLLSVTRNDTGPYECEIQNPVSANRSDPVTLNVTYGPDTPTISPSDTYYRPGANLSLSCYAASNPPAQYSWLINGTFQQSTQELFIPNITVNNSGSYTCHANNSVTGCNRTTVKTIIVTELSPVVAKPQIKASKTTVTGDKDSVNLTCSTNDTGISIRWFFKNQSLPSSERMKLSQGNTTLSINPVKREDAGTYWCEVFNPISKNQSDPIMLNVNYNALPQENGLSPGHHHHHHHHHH
Kind of test: binding ELISA with recombinant proteins, CEACAM1 coated. On the procedure:
Therefore, a direct CEACAM6-CEACAM1 interaction was tested using recombinant proteins in a binding ELISA. After establishing in preliminary experiments that a moderate but specific interaction between CEACAM1 and CEACAM6 could be detected, the following protocol was used: Black 384-well Maxisorb plates (Nunc) were coated with 1 μg/ml CEACAM1 (R&D Systems, TPP-1437) in Coating Buffer (Candor) for 1 h at 37° C. or were left uncoated as a control. After one wash with PBS/0.05% Tween-20 the wells were blocked with 100% Smart Block (Candor) for 1 h at 37° C. […] The blocked plates were washed three times and the preformed antibody-CEACAM6-complexes were added. The plates were incubated for 1 h at RT. After three washes an anti-human IgG HRP (Sigma A1070) was added at 1:10.000 and the plates were incubated for 1 h at RT. After three washes the plates were developed with Amplex Red (Life Technologies) and fluorescence was read at an emission wavelength of 590 nm.
In general terms: An ELISA detects its analyte on a solid surface through an enzyme-linked reagent.

B1: Human CEACAM6-Xa-Fc-His (Fc fusion)
chain: KLTIESTPFNVAEGKEVLLLAHNLPQNRIGYSWYKGERVDGNSLIVGYVIGTQQATPGPAYSGRETIYPNASLLIQNVTQNDTGFYTLQVIKSDLVNEEATGQFHVYPELPKPSISSNNSNPVEDKDAVAFTCEPEVQNTTYLWWVNGQSLPVSPRLQLSNGNMTLTLLSVKRNDAGSYECEIQNPASANRSDPVTLNVLYGPDGPTISPSKANYRPGENLNLSCHAASNPPAQYSWFINGTFQQSTQELFIPNITVNNSGSYMCQAHNSATGLNRTTVTMITVSGIEGRDMDT[human IgG1 Fc and a few adjoining residues left out]
notes: extracellular (mature form) fused to Xa-Fc-His; the entry is the whole fusion; also called hWT
Regarding B1, the binding result is “binds”.
